According to the supplement of paper PMC3334620:
Whole data set: some 33,000 sequences, median “E-score (-0.5 to 0.5)” near -0.012, cut for the highest 2% near 0.27. The list shows a part of the results.

Target: T1, Vhr1 (UniProt P40522)
T1 sequence: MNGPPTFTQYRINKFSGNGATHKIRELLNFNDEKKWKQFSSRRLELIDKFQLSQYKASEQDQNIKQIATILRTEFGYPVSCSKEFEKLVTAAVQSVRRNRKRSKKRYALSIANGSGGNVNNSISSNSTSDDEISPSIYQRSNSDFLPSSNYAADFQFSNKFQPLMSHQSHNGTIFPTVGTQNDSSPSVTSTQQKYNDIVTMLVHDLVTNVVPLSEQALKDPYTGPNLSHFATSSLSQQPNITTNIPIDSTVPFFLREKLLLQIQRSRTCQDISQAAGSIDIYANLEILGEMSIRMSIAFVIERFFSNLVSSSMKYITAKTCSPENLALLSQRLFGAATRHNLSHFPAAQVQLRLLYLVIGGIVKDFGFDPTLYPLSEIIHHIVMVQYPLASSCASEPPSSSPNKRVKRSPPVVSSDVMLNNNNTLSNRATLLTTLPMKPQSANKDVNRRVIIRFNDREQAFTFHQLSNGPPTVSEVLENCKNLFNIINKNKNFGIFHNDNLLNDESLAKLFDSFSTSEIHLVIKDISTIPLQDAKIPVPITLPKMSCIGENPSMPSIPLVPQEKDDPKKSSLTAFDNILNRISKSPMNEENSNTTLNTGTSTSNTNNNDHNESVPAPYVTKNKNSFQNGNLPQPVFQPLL
Experiment: PBM E-score (8-mer binding enrichment) (E-score (-0.5 to 0.5)); higher = stronger / more preferred TF binding; most listed sequences are background and not binding sites
Settings: protein concentration: 200 nM; construct: GST-full length
Method in brief: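 Detection of bound protein used fluorescent anti-GST, with scans normalised by masliner. The proteins were GST-tagged yeast transcription factors applied at about 100-200 nM to universal all-10-mer Agilent arrays made double-stranded by primer extension. Each ungapped eight-base word, pooled with its reverse complement, was scored with an E-score from the Universal PBM Analysis Suite.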

In order of falling “PBM E-score” value:
1. CATGCTGA  0.275
2. AGTCAGAT  0.27
3. ATTATGCG  0.269
4. GTGGTTCA  0.254
5. ATCCACCC  0.24
6. CGTGATTA  0.236
7. GAAACCCA  0.212
8. ATCATACG  0.203
9. TAACACCA  0.203
10. ATGTGTAA  0.174
11. ATACGAGC  0.171
12. CACTACAC  0.163
13. AGGTGTGC  0.163
14. CTAGTATC  0.163
15. GTTCTGTA  0.159
16. AATACTCA  0.15
17. CTATATGC  0.149
18. ACATTATG  0.146
19. ACTGTGAG  0.139
20. AACATACT  0.137
21. CACATAGC  0.135
22. GCGATGTA  0.126
23. AGTCTGTG  0.124
24. AATGTGGG  0.122
25. AGCCGGGG  0.111
26. ATTACGTA  0.109
27. GCGAACAA  0.108
28. AATCAGTA  0.099
29. ACATGTTA  0.0982
30. CTATCACA  0.0972
31. TAACCGGA  0.0968
32. CAATGGCA  0.0943
33. ACTGGCCC  0.0921
34. AACCAGCT  0.0891
35. CATACTGG  0.0817
36. AGCTCGGG  0.0777
37. ATGAGCAC  0.0768
38. CTCACGAC  0.0741
39. AACAATTA  0.0736
40. ATTCTGGC  0.0694
41. AGTACCAG  0.0678
42. AGCCGCCG  0.0654
43. AGATCAAT  0.0633
44. GATCTAGC  0.0633
45. AGAACATA  0.0629
46. ACCTACTA  0.0622
47. AGTCTGGC  0.061
48. TACGCGCA  0.0598
49. TGATGTAA  0.0584
50. GATCCAGC  0.0577
51. CAGCTGGC  0.0577
52. CATCTGAC  0.0529
53. CCATGATC  0.0523
54. CGGGCATA  0.0519
55. CGAACATC  0.0495
56. TGATATCA  0.043
57. TCAGTGAA  0.0379
58. AGCCGAGG  0.0354
59. AGGTCTAT  0.0337
60. TCAACCAA  0.0298
61. ATGGCGCA  0.0297
62. AACAGGGC  0.0287
63. AACCAAAG  0.0286
64. AGACAATC  0.0276
65. ATAGTGGC  0.0241
66. CCAATGGA  0.0225
67. CAACATAG  0.0191
68. AAGAGACA  0.0149
69. CGATCGAA  0.0119
70. GCTCGTCC  0.00841
71. ACCTTGAT  0.0042
72. ATACTGAA  0.00307
73. AACACCTG  -0.00037
74. ATCGTTCA  -0.00384
75. ACTGATTG  -0.00926
76. AGATATAA  -0.00935
77. GCTAGGGA  -0.0169
78. TTCCCAAA  -0.0171
79. CTCGGTAC  -0.019
80. ATCCGGCC  -0.0203
81. GGACGTGA  -0.0205
82. GGTGGGAC  -0.021
83. TGAGACCA  -0.0249
84. CCAGGGGG  -0.0261
85. CCACGTAC  -0.0261
86. GCGTCTCA  -0.0288
87. CCACGGCC  -0.0304
88. CCTCAGAG  -0.032
89. CAGCGAGA  -0.0324
90. CGTTGACC  -0.0345
91. ACCTGGCG  -0.0353
92. AAAAATCC  -0.0382
93. GCTTACCA  -0.0427
94. ACGACGAC  -0.0433
95. CGACGCTA  -0.0453
96. ATAGGATC  -0.0462
97. AGGCTATG  -0.0464
98. TTACCGAA  -0.0476
99. AGTGGAGA  -0.0499
100. ATCTGTTG  -0.0541
101. ACGTGCGC  -0.0561
102. CTGGAACC  -0.059
103. CGTTTGGA  -0.0625
104. CTCAAATC  -0.0641
105. CCCGCGTA  -0.0687
106. CCAAGACC  -0.0739
107. TCTCGAGA  -0.0788
108. CAACTGCC  -0.0867
109. CAAACCTA  -0.0907
110. CTGCACGC  -0.0919
111. ACAGATCG  -0.0921
112. CTACTTAC  -0.0946
113. ACTATTTA  -0.0988
114. CGGGGAAG  -0.102
115. AACCTATT  -0.103
116. GGCCTAAC  -0.103
117. CCAGGCGC  -0.106
118. GAGTTAAC  -0.109
119. AACTATCC  -0.11
120. AATCCGCG  -0.113
121. AATGAGAC  -0.113
122. AGCTGCGG  -0.115
123. AGTCCCGG  -0.116
124. GCCGAACC  -0.118
125. CCCGTGCA  -0.119
126. ACCCCAGG  -0.122
127. CTTGACAC  -0.125
128. ACGACAGT  -0.125
129. AAGGAACG  -0.128
130. AGCATTCC  -0.131
131. ACCGCCCA  -0.132
132. GATTGAAA  -0.135
133. ACGTGAAG  -0.136
134. ACCTCTGC  -0.137
135. CTTAACGC  -0.137
136. ACTTCAGG  -0.137
137. CAACGCCA  -0.137
138. GAACATCA  -0.14
139. CTTTTTTA  -0.141
140. ACCGCAGA  -0.143
141. AGCTATAA  -0.147
142. AGCTATGC  -0.15
143. AATTCTGT  -0.154
144. GAGTAAAC  -0.156
145. CAGTGCGC  -0.156
146. GCCCTATA  -0.159
147. GCGCTATA  -0.16
148. GTTAGAAC  -0.161
149. GAAGCATC  -0.161
150. AATGCTTC  -0.166
151. TAAAAAGA  -0.167
152. GTCCCAGA  -0.169
153. AAGCTGCG  -0.174
154. GCTTATAA  -0.175
155. AAAGCTCA  -0.175
156. AAGCCTAG  -0.178
157. CCGGGGTA  -0.186
158. CATAAGCA  -0.191
159. CCCTAAGA  -0.192
160. CACGTTAA  -0.199
161. CTTAACAA  -0.202
162. AAAGAAAC  -0.219
163. CCCAAAAG  -0.22
164. ATAGGGGG  -0.221
165. AATTTGAA  -0.224
166. CCGATAAG  -0.229
167. AGCCTTAG  -0.25
168. CTTTGGCC  -0.254
169. AGGGAACG  -0.261
170. AAGGCTGG  -0.27
171. CTAAAGAC  -0.288
172. CTTTTTCA  -0.292
